Results on 39 molecules are retold here after PubChem BioAssay (NCATS).

SMILES strings stand for the structures. This is one part of the list. Further columns of the screen follow, without active or inactive calls. Compounds called inactive in the main read-out are mostly missing here. The note in brackets gives the kind of curve behind each potency; many fits are weak.
Tags give direction and shape of the fitted curve.

This assay in a line: qHTS Assay for Lipid Storage Modulators (AID 1519). As to conditions: Drosophila S3 cells, BODIPY lipid droplet/cell ratio, laser cytometry; measured here: lipid (BODIPY) channel AC50; cells loaded with oleic acid. In outline: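 Cells seeded at 5,000 per well were treated with compounds over a concentration series and loaded with oleic acid (400 uM, as added). Lipid droplet fluorescence (488 nm excitation, 500-530 nm channel) was read by laser-scanning cytometry and normalized to 20 uM Triacsin C.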
(In general: In qHTS, concentration-response curves come from the screen itself.)
As for `O=C(Nc1ccccc1)[C@@]12C[C@@H]1/C(=N/O)c1ccccc1O2`, the AC50 is 7.08 µM [rising, partial curve].
Take `N#Cc1cccc(-c2nccc(NCc3ccccc3)n2)c1`: the AC50 was 2.51 µM [rising, partial curve].
On to `COCCn1c(=O)c(-c2ccc(OC)cc2)nc2cnc(Nc3ccccc3)nc21`, for which the AC50 was 0.0708 µM [rising, full curve].
For the molecule `CCNc1ncc2nc(CCc3ccccc3)c(=O)n(C3CC3)c2n1`, the AC50 was 1 µM [rising, full curve].
As to `Cc1nc2cnc(N(C)C)nc2n(CCc2ccccc2)c1=O`, the AC50 was 1.58 µM [rising, full curve, poor fit].
As for `COc1ncc2nc(-c3ccc(F)cc3)c(=O)n(CCC#N)c2n1`, the figure is 0.398 µM [rising, partial curve].
As for `COc1ccc2[nH]cc(CCNc3ccnc(-c4cccnc4)n3)c2c1`, the figure is 0.0316 µM [rising, full curve, poor fit]; as for `COc1cc(C)c2c(=O)cc(-c3ccccc3)oc2c1`, 2.51 µM [rising, full curve, poor fit].
As for `Cc1ccc2oc(-c3ccccc3)c(O)c(=O)c2c1`, the figure is 15.8 µM [rising, partial curve]; as for `COc1ccc2c(c1OC)C(Cc1ccccc1)N1CCc3cc4c(cc3C1C2)OCO4` (centres undefined), 2 µM [rising, full curve].
With `c1cn(-c2ccnc(-c3ccc4c(c3)OCO4)n2)cn1`, the AC50 was 0.141 µM [rising, full curve].
As for `COc1ccc2[nH]c(-c3ccccc3)c(CCNC(C)=O)c2c1`, the figure is 0.398 µM [rising, full curve].
Then `CCNc1ncc2nc(CCc3ccccc3)c(=O)n(-c3ccccc3)c2n1`, with 0.251 µM [rising, full curve].
As for `COc1ccc(-c2nc3cnc(OC)nc3n(C3CC3)c2=O)cc1`, the figure is 2.51 µM [rising, partial curve, poor fit]; as for `c1ccc2c(NCCN3CCOCC3)nc(-c3ccoc3)nc2c1`, 0.0708 µM [rising, full curve].
As to `O=C(O)CC/C=C\CC[C@H]1[C@@H](N2CCCCC2)[C@@H](O)C[C@@H]1OCc1ccc(-c2ccccc2)cc1`, the AC50 is 35.5 µM [rising, partial curve, poor fit].
As for `C[C@H]1C=C2C=C[C@H](C)[C@H](CC[C@@H]3C[C@@H](O)CC(=O)O3)[C@H]2[C@@H](OC(=O)[C@@H](C)CCO)C1`, the figure is 39.8 µM [rising, single point]; as for `N#CCCn1c(=O)c(-c2ccccc2)nc2cnc(Nc3ccccc3)nc21`, 39.8 µM [falling, single point].
With `O=c1c(-c2ccccc2)nc2cnc(N3CCNCC3)nc2n1Cc1ccc(F)cc1`, the AC50 is 0.02 µM [rising, full curve, poor fit].
Then `COc1cc2c(cc1OC)C(=O)N(C)CC2`, with 35.5 µM [rising, partial curve, poor fit]; and `COc1ccc(-n2c(=O)c(CCc3ccccc3)nc3cnc(N4CCNCC4)nc32)cc1`, with 11.2 µM [rising, partial curve]; and `COc1cccc(-c2ccc3ncnc(NCc4cccnc4)c3c2)c1`, with 5.01 µM [rising, partial curve, poor fit].
Then `CN(Cc1ccco1)c1ccnc(-c2cccc(C#N)c2)n1`, with 5.62 µM [rising, partial curve]; and `CNCC(O)c1cccc(O)c1` (centres undefined), with 39.8 µM [rising, single point].
Then `Nc1nc2c(ncn2C2CC(O)C(CO)O2)c(=O)[nH]1` (centres undefined), with 31.6 µM [falling, single point]; and `COc1cccc(Cn2c(=O)c(-c3cn(C)c4ccccc34)nc3cncnc32)c1`, with 0.316 µM [rising, full curve]; and `CC(=O)Oc1c2c(c3c(c1CC=C(C)C)O[C@@]14C(=CC5CC1C(C)(C)OC4(C/C=C(\C)C(=O)O)C5=O)C3=O)OC(C)(CCC=C(C)C)C=C2` (some centres undefined), with 11.2 µM [falling, partial curve].
With `Cc1ccc(S(=O)(=O)NCc2ccccc2)cc1`, the AC50 was 15.8 µM [rising, partial curve].
Take `Cn1cc(-c2nc3cnc(OCc4ccccc4)nc3n(CCC#N)c2=O)c2ccccc21`: the AC50 is 2.82 µM [rising, full curve].
In the case of `C[C@@H]1CNCCN1S(=O)(=O)c1cccc2cnccc12`, the AC50 is 14.1 µM [rising, partial curve].
Then `CN(C)C(=O)c1ccc(-c2nccc(N(C)Cc3ccco3)n2)cc1`, with 15.8 µM [rising, partial curve, poor fit].
Take `Cn1c(=O)c(-c2cccs2)nc2cnc(Oc3ccccc3)nc21`: the AC50 is 2.82 µM [falling, partial curve, poor fit].
`FC(F)(F)c1ccccc1-c1cncnc1NCc1ccccc1`: the AC50 was 8.91 µM [rising, partial curve, poor fit].
As for `COc1ncc2nc(-c3ccc(Cl)cc3)c(=O)n(CCc3ccccc3)c2n1`, the figure is 0.0224 µM [rising, full curve, poor fit]; as for `COc1cccc(Cn2c(=O)c(C)nc3cnc(N4CCOCC4)nc32)c1`, 0.2 µM [rising, full curve].
Regarding `O=c1c(O)c(-c2ccc(O)cc2)oc2cc(O)ccc12`, the AC50 was 39.8 µM [falling, single point].
For the molecule `O=c1c(CCc2ccccc2)nc2cncnc2n1C1CC1`, the AC50 is 0.316 µM [rising, full curve].
As for `N#CCCn1c(=O)c(CCc2ccccc2)nc2cnc(Oc3cccc(Cl)c3)nc21`, the figure is 0.355 µM [rising, partial curve]; as for `c1ccc(CNc2ncnc3ccc(-c4ccoc4)cc23)cc1`, 7.94 µM [rising, full curve].

The AC50 is the midpoint of the concentration-response curve, whichever way the signal moves.
